Laboratory results as given in the supplement of paper PMC10126150.
Values marked as one replicate rest on one cluster of the flow cell; about a third of the high ones do not repeat.

test system: ATP; experiment: switch fluorescence ratio, 500 uM ATP over buffer (Cy3 cluster intensity, sum of 5 cycles each) (fold (ratio)); higher = stronger signal-on switching upon ATP binding; sequences stand for … in TCGTCGGCAGCGTCAGATGTGTATAAGAGACAGTTTTTTTTTTTTTTTTTTTTTTTTT…TC; conditions: aptamer strand: ATP DNA aptamer (quencher-CACCTGGGGGAGTATTGCGGAGGAAGG + anchor), 100 nM annealed; ATP concentration: 500 uM; one replicate
In short: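 Switching-strand clusters labelled with Cy3 on a modified Illumina MiSeq flow-cell were annealed to 100 nM quencher-labelled ATP aptamer, imaged in selection buffer, and re-imaged after 15 min with 500 uM ATP at 22 °C. This was done over five cycles with NaOH stripping and re-annealing in between. The fluorescence ratio is summed target-cycle over summed buffer-cycle Cy3 intensity per cluster, averaged per switch-domain sequence, excluding clusters outside 100-1000 RFU.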
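Further: ATP exposure 15 min at 22 °C before imaging.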

Sequence	switch fluorescence ratio
ATCGGTAGTC	0.978
ATCGGTATGG	0.933
ATCGGTGTTT	0.999
ATCGGTTAGT	1.04
ATCGGTTTAC	0.989
ATCGTAATCG	0.981
ATCGTAGTCT	0.978
ATCGTATCGT	0.921
ATCGTATCTC	1.1
ATCGTCACAG	1.04
ATCGTCTCTC	0.984
ATCGTGAAGA	0.998
ATCGTGTGGG	0.977
ATCGTTAACT	1.03
ATCGTTACTG	1.06
ATCGTTGCGA	0.968
ATCTAAGTCT	1.02
ATCTACGGCC	1.07
ATCTACGGGC	1.07
ATCTACTTTG	1.06
ATCTATCGTT	1.02
ATCTATTCTT	1.01
ATCTCCCAGG	1.15
ATCTCCTGCG	1.18
ATCTCTATGG	0.956

Sequence	switch fluorescence ratio
ATCTCTATTT	1.05
ATCTGACATT	1.03
ATCTGACTCG	1.28
ATCTGCGTGG	0.99
ATCTGGCCAC	1.07
ATCTGGCCGG	0.968
ATCTGGCGCG	1.01
ATCTGTGCAT	1.02
ATCTTACACC	1.13
ATCTTAGAT	1.03
ATCTTAGATA	1.05
ATCTTAGTTC	0.964
ATCTTATGCG	1.03
ATCTTATGT	0.99
ATCTTATTCT	0.998
ATCTTCAGAC	1.06
ATCTTCTGAA	0.997
ATCTTGGTCG	1
ATCTTGTACC	1.05
ATCTTTTAGA	0.984
ATGAAAAACT	1
ATGAAAACAC	1.03
ATGAAATAAT	1.02
ATGAAATTAA	1
ATGAACTCTG	1

Sequence	switch fluorescence ratio
ATGAAGGAGT	1.01
ATGAATATGA	0.975
ATGAATATGG	0.975
ATGACCAATT	0.997
ATGACCAGTG	0.98
ATGACCGAAA	1.07
ATGACGCCGA	0.983
ATGACTACTG	1.07
ATGACTGAGA	0.978
ATGACTTTGA	1.01
ATGAGAACAG	1.02
ATGAGACGCA	1.09
ATGAGCCCTA	0.995
ATGAGCCGC	0.979
ATGAGCGTT	0.993
ATGAGGAAGC	1.05
ATGAGGAGCT	0.985
ATGAGGGAGC	0.99
ATGAGGTCTT	1.02
ATGAGGTTCG	0.966
ATGAGTATGG	0.982
ATGAGTGTTC	1
ATGATAAGAT	1.03
ATGATACGGG	1.04
ATGATAGGTA	0.988

Sequence	switch fluorescence ratio
ATGATATGAG	1.01
ATGATGACGT	1.01
ATGATGGTGA	1.01
ATGATTCCCG	1.04
ATGATTGATC	1.03
ATGATTGC	0.988
ATGATTGTCA	0.997
ATGCACGGTA	1.13
ATGCAGCACG	1.01
ATGCAGTTCA	0.981
ATGCCACGCG	1.08
ATGCCAGATT	1.01
ATGCCATGGT	0.991
ATGCCATTAT	1
ATGCCCGGCA	0.951
ATGCCGAGGC	0.946
ATGCCGCTAC	1.75
ATGCCGGAAT	1
ATGCCGGTCA	0.961
ATGCCGGTTG	0.956
ATGCCGTCGG	0.972
ATGCCGTTGT	1.03
ATGCCTGGGG	1.69
ATGCGACGTG	0.965
ATGCGAGGGC	1.04

Sequence	switch fluorescence ratio
ATGCGATGGG	1.01
ATGCGGGAGT	1.03
ATGCGTTTGC	0.983
ATGCTAACAA	0.989
ATGCTAATG	1.02
ATGCTACATA	1.04
ATGCTAGGTC	0.962
ATGCTCGGCA	1.02
ATGCTGCCCT	1.03
ATGCTTTTG	1.02
ATGGAAACAT	1.08
ATGGAACAGA	1.12
ATGGAATTGC	1.05
ATGGACGGGA	1.1
ATGGACGTGC	0.984
ATGGACTGCA	1.08
ATGGAGAGGC	0.99
ATGGCCAGGG	1.05
ATGGCCTACA	1.03
ATGGCCTTCG	1.14
ATGGCGGACT	0.943
ATGGCGTCC	0.958
ATGGCGTTTG	1.02
ATGGCTATTA	1.06
ATGGCTTTCC	1.26

Sequence	switch fluorescence ratio
ATGGGAACGC	1.01
ATGGGAATTA	1.01
ATGGGATAAC	1.03
ATGGGGGTGA	1.04
ATGGGGTGT	0.968
ATGGGTAGA	1.01
ATGGGTCAAC	1.03
ATGGGTCTGA	0.934
ATGGGTGAAT	0.967
ATGGGTGGA	1.03
ATGGTAAAC	1.05
ATGGTAGTA	0.964
ATGGTCTTCT	1
ATGGTGATTG	0.945
ATGGTGGACA	0.973
ATGGTGTCAA	0.997
ATGGTTACTA	1.04
ATGGTTCCCA	0.97
ATGGTTCGCT	0.949
ATGGTTTTCG	1.02
ATGTAACGG	0.979
ATGTAAGATG	1.03
ATGTAAGCGG	1.02
ATGTACTCCT	1.13
ATGTAGAACG	0.99

Sequence	switch fluorescence ratio
ATGTAGACGA	1
ATGTATAATC	1.03
ATGTCAGTCA	1
ATGTCCCTCC	1.1
ATGTCGTCGT	1.02
ATGTCTAGTG	1.17
ATGTCTCTGA	1.01
ATGTCTGAAA	0.997
ATGTGAGGGC	1.08
ATGTGATAAG	0.98
ATGTGCACA	1.03
ATGTGCACAA	0.985
ATGTGCAGCA	1.01
ATGTGCGGTG	1
ATGTGGAGTG	0.981
ATGTGGATCT	1
ATGTGGCAGC	0.951
ATGTGGGGCG	0.998
ATGTGTGTAG	1.08
ATGTTATATT	1.02
ATGTTATTAA	0.96
ATGTTCAGAA	0.984
ATGTTCGCCG	0.952
ATGTTCGCG	1.01
ATGTTCGCTA	1.06

Sequence	switch fluorescence ratio
ATGTTCTTGC	0.96
ATGTTGAAA	0.961
ATGTTGCACG	0.939
ATGTTGCGTT	0.977
ATGTTGGTTA	0.957
ATGTTGTTTC	0.952
ATGTTTAGTT	1.02
ATGTTTCCTG	0.984
ATGTTTCGAC	1.02
ATGTTTGTTG	0.93
ATGTTTTCGA	1.02
ATGTTTTGCC	1.01
ATTAAACTCT	1.09
ATTAACGCTT	1.03
ATTAAGAAGA	1.04
ATTAAGTACG	1.21
ATTAATCGAG	1.02
ATTAATGCCT	1.08
ATTAATTTGG	0.954
ATTACCACAG	1.1
ATTACGGTA	1.14
ATTACTTGGA	0.949
ATTACTTTAC	1.44
ATTAGACCGA	1.02
ATTAGGAGGG	1.04
